Measurements from the supplement of paper PMC11417369.
± gives the standard deviation of the averaged measurements. The list shows a part of the results.

system: PfAP2-G AP2 domain (GST-tagged); assay: gcPBM binding intensity (ln(normalized median fluorescence intensity)); higher = stronger DNA binding
How it was run: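 GST-tagged P. falciparum DNA-binding domains, expressed in E. coli (about 25 μg on average), were applied for 1 h to an Agilent 4 × 180k array of primer-extended double-stranded 36-bp intergenic genomic probes plus negative controls. The binding buffer was 1× PBS with 1% milk, 0.2 mg/ml BSA, 0.5% salmon testes DNA and 0.03% Triton X-100. Bound protein was detected with Alexa488 anti-GST antibody and scanned at 488 nm. Binding intensity is the highest Masliner-normalised natural-log median intensity across replicate spots of either probe orientation.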

Sequence	gcPBM binding intensity (ln)
CCCAAAAAATATCATAGTACTCAACATGACTACTAT [XGTACX_site7838]	11 ± 0.41
ATAAAGATTAACAAAGTGCATTTATATATATAATCT [GTGCAC_site9407]	9.81 ± 0.057
AAATAAAATAATAAAACATGCAAAAATAATGATTTA [TGCATGCA_site415]	9.765 ± 0.035
CATGTGTGATAATGATGTACTATATTAAGCTAGTCC [XGTACX_site2690]	10.9 ± 0.47
TATATACATATATATTGTACTTATTTTTATAATGTC [XGTACX_site3453]	11.3 ± 0.89
ATTCTACGCACGCGCACACACAACAAAAAAAAAAAA [CACACA_site3538]	10.8 ± 0.68
GTGATGGTACAATATACACACTTAAAAAAAAAAAAT [CACACA_site5360]	10.8 ± 0.78
ATTTAATACAAATACACACACAAATAAATACAGATA [CACACA_site5956]	10.3 ± 0.32
TTAAGGCATCAACATAGTACAATTTTTCTATAATAA [XGTACX_site1114]	10.6 ± 0.4
TTTATTTCCTTTTTGTGTACATATATATGTAATTCA [XGTACX_site1718]	11.4 ± 0.77
TTTATAATTCTTACAACACACAATGTACTTTTATAT [CACACA_site8340]	11.3 ± 0.84
TATTATATAAAATATTTTATTATATCATCTTCTCTA [XGTACX_negctrl_site319]	9.63 ± 0.18
GGTAATAATATGCATAGTACATAATATATATATATA [XGTACX_site6793]	10.8 ± 0.64
AAGAAAAATAATTAGGGTGAAAATATATAGAGTAAA [TGCATGCA_negctrl_site590]	9.79 ± 0.25
CAATTCTTAAGTTCTTGTACGAAAAACGACAATTTA [XGTACX_site3890]	11 ± 0.66
ACACATATATATATATATATATATATATATATATAT [CACACA_negctrl_site1766]	10.7 ± 0.76
GTATGTATGTATGTATGTACGTATTTATTTATTTAA [XGTACX_site726]	11.5 ± 1
ATAATATAAATAATTATACACACTTAATATATATAT [CACACA_site2782]	9.92 ± 0.028
TAAATGTGAAATTTTATATTTTATATAATATACAAT [CACACA_negctrl_site76]	9.71 ± 0.23
AAGGATCACCCACAAACACACATATATATATATATA [CACACA_site559]	10.3 ± 0.6
AACATAAGTAATATTTGTACATATATAATAATATAT [XGTACX_site5123]	10.8 ± 0.56
AAAAATGGTGTTAACACACACATATAAATAAATATA [CACACA_site6412]	9.765 ± 0.049
ATCATATTTTTATGTGTGCACTTTTTTTTTTTTTTT [GTGCAC_site9555]	10.9 ± 0.56

Sequence	gcPBM binding intensity (ln)
CTCTTATACATATTCCTGCACTTATTTTTAAAAACA [GTGCAC_site9620]	10.7 ± 0.43
AAGAAAAGCATAGATGCACACATATATATATATATA [CACACA_site8675]	10.2 ± 0.49
GGAACTTAAAAAAAATGTACTTATAAAAAAGGAAAT [XGTACX_site8186]	11.2 ± 0.86
TTACACATACATATGTGGGAAAATATTGCTACATAT [CACACA_negctrl_site463]	10.03 ± 0.042
AACATGCAAACATGCACACAGAAAAAAAAAATATAT [CACACA_site1565]	9.99 ± 0.19
ATCATTATATTATGGTGTACCCATATATAATTATCA [XGTACX_site551]	11.4 ± 0.88
CATTAAACCGTGGGAGCACACACACCCACCCACCCA [CACACA_site8000]	10.7 ± 0.36
AATTTAAAGAATTGTAGTACAATGAAATATATATAA [XGTACX_site7970]	11.6 ± 1.1
AATACCTATGGAATTAATAATATGTGTACAGACACA [TGCATGCA_negctrl_site547]	11.3 ± 0.96
AACAATGGATTATTCACACATAAAAAAATTCACATT [CACACA_site5437]	9.76 ± 0.13
TATATATATATATATACACACATATATATATTTTTC [CACACA_site3983]	10.2 ± 0.61
TGTTAAATTATTTATCAGATTATTATTTGTAAATAA [CACACA_negctrl_site1535]	9.52 ± 0.099
TTTGAACATTTTGCAAGTACAAAAAAATAATATATC [XGTACX_site8079]	11.1 ± 0.79
AAAAAAATATATATATGTACATAACTTTGTTGTGAT [XGTACX_site5243]	11.1 ± 0.49
AATGTAAAACCTCCTACACACACCAATTAACTATTC [CACACA_site2112]	10.09 ± 0.042
TACTTATCGTTAAATTGTACTAAAAAATATTTTTCT [XGTACX_site4665]	11 ± 0.61
TAAAATTTTGTTTGTTGTACTTATTTTCGTGTCAAC [XGTACX_site8277]	11.6 ± 1
AAAGATGAATTTTTTACACACACCATTTTATAATAT [CACACA_site3676]	10 ± 0.11
AAAAAAAAAAAAAAAAAAAAATATATATATATATAT [GTGCAC_negctrl_site426]	10.7 ± 0.45
AAAAGTATAATAAATTGTACTAACAAATATTTATGT [XGTACX_site7721]	10.9 ± 0.56
TGGTATTAAGGAGAGGGTACAAAAAAAAAAAAAAAA [XGTACX_site1668]	11.1 ± 0.87
TTATAATAAAAGGCTTTACAATTATTAAACAAATAA [GTGCAC_negctrl_site480]	9.53 ± 0.26
AAAAAAGAAGAGCACACACACATATATAAATATAAA [CACACA_site631]	9.98 ± 0.2

Sequence	gcPBM binding intensity (ln)
GCCATTGTACCATCCACACACATATATATCTGTATA [CACACA_site5490]	10.9 ± 0.57
ATGGTATAAAAAAATACACACTTATATATATTCTTA [CACACA_site4427]	9.925 ± 0.035
TTTTTTTTTTTTTCTCGTACAAAATAATACCTTTTT [XGTACX_site3867]	10.7 ± 0.69
GTAGACATTATAATGGTGCAAAAAAATTAACAAAAA [GTGCAC_site9891]	10.5 ± 0.54
TTCTAATATTTACATAATATATAGAAATATAAAGGT [XGTACX_negctrl_site504]	9.99 ± 0.2
AAATATAAACTCAGCACACAAACATATATATGTCAT [CACACA_site4004]	9.995 ± 0.078
AGGGAATATTTTTATGCATGTGCTTACACATTACAA [TGCATGCA_site830]	10 ± 0.25
AAAAAAAACGGACACACACACATACAAAATATATAT [CACACA_site4910]	11.2 ± 0.86
AGGAGGATATTACACAGTACCCAGTAACTCTACGGA [XGTACX_site1998]	10.6 ± 0.36
TCAGAGTGAAGTTATACACACATGGTTTTTTTTTTT [CACACA_site2116]	9.875 ± 0.021
AGAGAGAAAGCTATAACATGCAACAATTTTTAGAAA [TGCATGCA_site95]	9.61 ± 0.18
AAGTATGCGTTATATACACACATACATTTATATATC [CACACA_site6207]	9.91 ± 0.085
ATAAATAAAAAAAAAAAAAAAAAAAAAAAAAAAATA [CACACA_negctrl_site1064]	9.56 ± 0.099
GTTGTATAAAATAATACATGCATGTCCTACATATAT [TGCATGCA_site162]	10.9 ± 0.63
TTTTTTTTTTTAAATACATGCATGTCCTATTTAAAT [TGCATGCA_site494]	10.4 ± 0.61
TTTTTTTGATAAAAGGTGCTACAAGATGAATACATA	10.3 ± 0.4
TAATATATTTATAAGTGTACACATTATATAAATCCC [XGTACX_site8875]	11.7 ± 0.74
CCGCATTTTACAGACACACACAATTTATATTACGGT [CACACA_site6974]	10.3 ± 0.26
AGTAATAACTATATATGTACATATATATATTATTAG [XGTACX_site1113]	11.1 ± 0.67
GTAATATATTTTTATGGTACACGAACTAGCCAAAAA [XGTACX_site6307]	11.3 ± 0.88
TTACCTTTAAATGGATGTACAGAAATTTAAATTGTT [XGTACX_site7044]	11.1 ± 0.73
CTTCCTTCTAAATGCACACGGAAAGTATAAATGTAT [CACACA_site2501]	10.1 ± 0.15
TATATTATTTATTTTTGTACATATTATGAATGAATA [XGTACX_site3971]	10.9 ± 0.42

Sequence	gcPBM binding intensity (ln)
AAAATAAATATGAACACACACATTTATGCCTTTAAA [CACACA_site1271]	9.915 ± 0.007
TATTTGTTTTTATATAGTACATAAATATATATATAT [XGTACX_site7834]	10.9 ± 0.61
ATTATTTATATTATGGTGCATAATTTTGGGTTTCTT	10.06 ± 0.049
AGAGATATAAGAAAAGCACACACACCCAAAAAAAAA [CACACA_site8917]	10.5 ± 0.45
TATATACAAAAAATATGTACATATATATATATATAT [XGTACX_site3497]	11.3 ± 0.64
AAAAAATAAATAAATACACACACACTAATATATATA [CACACA_site8488]	9.915 ± 0.035
CAGATAGACTTATATGCATGCATTCACATACCAACA [TGCATGCA_site163]	9.96 ± 0.071
AACAACATTTTGTAATGTACATATTTACTTATATTC [XGTACX_site7251]	11 ± 0.57
TATATTATTTATTAGACACACATTATTAATATATTT [CACACA_site1078]	10 ± 0.13
TGGATTTTGTATTAATGTACATATATATATATATAT [XGTACX_site4442]	11.1 ± 0.73
CCTCTTAATATGTGCACACTAAATTATAACATAATT [CACACA_site3259]	10.9 ± 0.55
TGAAAAGTAAAATACACACACATAATCTAATTTATA [CACACA_site7024]	9.87 ± 0.18
GGTTAACATAAATATATACACACCAATGATGGCATT [CACACA_site1568]	9.84
TAGAAATATATAAATTGTACATGTTTGTATAATATA [XGTACX_site2097]	10.8 ± 0.4
AAATAATTAGAAATAGTGCACATAATTAAGGGATAC	10.5 ± 0.21
ATTTTTATTTACAACCCCAAAAAGGAAAAACATAAA [CACACA_negctrl_site1169]	10.3 ± 0.36
AATATTTATACTATAACACACATACAGACAAAAAAA [CACACA_site6396]	10.3 ± 0.28
TTACATTATATACATACACACCCACCCACAAAAAAA [CACACA_site8187]	10.7 ± 0.47
TTTTTTTTTTTTTTTTGTACGTAAAAAAATATATAC [XGTACX_site1290]	11.3 ± 0.93
TTGTTATATTACAGTAGTACATTTAAAATCTACTAC [XGTACX_site2620]	11.4 ± 0.93
